Assay results taken from PubChem BioAssay AID1347428 (National Center for Advancing Translational Sciences (NCATS), 2020).
The whole screen tested about 91,000 compounds, of which about 290 (0.32%) were called active. The inconclusive results got no clear call from the source; some entries with a clear call stand among them for comparison. Calls come from the whole dose curve; as a rule, active = well fitted inhibition curve with a large enough effect; inconclusive = small, poorly fitted or top-dose-only effect; inactive = no such curve, though single readings can be large or run the other way. Where the call is inconclusive, the potency comes from a doubtful curve fit.

What follows are compounds tested against Single-stranded DNA cytosine deaminase (Homo sapiens) (UniProt Q9GZX7) (assay: Primary qHTS assay for inhibitors of Activation Induced Cytidine Deaminase (AID): AID signal). Conditions: AID deamination FRET fluorescence, UDG-coupled, 4 h; activity change, negative = inhibition: at 115 µM (top of the series).
Chain of UniProt Q9GZX7 (Q9GZX7 whole entry, looked up): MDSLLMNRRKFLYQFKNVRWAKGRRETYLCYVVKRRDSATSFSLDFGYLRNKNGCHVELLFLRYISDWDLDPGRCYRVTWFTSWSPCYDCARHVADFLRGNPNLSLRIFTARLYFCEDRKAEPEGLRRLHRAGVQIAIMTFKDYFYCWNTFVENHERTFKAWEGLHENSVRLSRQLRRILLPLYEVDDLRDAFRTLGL
% is set by controls: 0 for no effect and ±100 for the full control effect; potency is the fitted concentration of half-maximal effect; tags give direction and shape of the fitted curve.
Note: nearly all actives have a fitted effect of over 25% in size.

Structure (SMILES)	activity change, negative = inhibition	Potency
Cc1cccc(C)c1NC(=O)Cc1c(C)nc2nc(-c3cccs3)nn2c1C	inactive: -3.16%	
Cc1cc(C)c2sc(N3CCN(C(=O)c4ccc(N(C)C)cc4)CC3)nc2c1		inconclusive: 50.1 µM [inhibitor, partial curve, poor fit]
N#Cc1cccc(NCc2cc(Br)ccc2F)c1	inactive: -9.39%	
CCOc1ccc(Nc2c(S(=O)(=O)c3ccccc3)cnc3ccc(F)cc23)cc1		inconclusive: 15.8 µM [inhibitor, full curve, poor fit]
Cc1ccc(C)c(-c2ccc(=O)n(Cc3c(F)cccc3Cl)n2)c1		inconclusive: 39.8 µM [inhibitor, full curve, poor fit]
CC(=O)N1CCc2c(sc3c2c(=O)n(CCc2ccccc2)c(=O)n3Cc2ccccc2C)C1		inconclusive: 56.2 µM [inhibitor, partial curve, poor fit]
Cc1cccc(C)c1NC(=O)CS(=O)(=O)c1nc(-c2ccc(Cl)cc2)cn1-c1ccccc1		inconclusive: 39.8 µM [inhibitor, partial curve, poor fit]
CCOC(=O)c1nc(NCc2ccc(Cl)cc2)c2c(C)noc2n1	inactive: -15.1%	
Cc1ccc(C)c(NCc2nnc(-c3ccc(Br)cc3)o2)c1	inactive: -5.64%	
Cc1ccc(C)c(N2CCN(C(=O)c3ccc4c(c3)N(Cc3ccc(F)cc3)C(=O)c3ccccc3S4=O)CC2)c1 (centres undefined)		inconclusive: 10 µM [inhibitor, partial curve, poor fit]
C=CCSc1nnc(NC(=O)c2cc(=O)c3c(C)cc(C)cc3o2)s1		inconclusive: 50.1 µM [inhibitor, partial curve, poor fit]
Cc1cccc(C(=O)NCC(=O)OCc2cc(=O)n3nc(C4CCCCC4)sc3n2)c1		inconclusive: 100 µM [inhibitor, single point]
Cc1cccc(N2CCN(S(=O)(=O)c3ccc4[nH]c5c(c4c3)CCCCC5)CC2)c1C		inconclusive: 39.8 µM [inhibitor, single point]
Cc1ccc(N(C)C(=O)C2CCN(S(=O)(=O)c3c(C)noc3/C=C/c3c(C)cc(C)cc3C)CC2)cc1		inconclusive: 28.2 µM [inhibitor, partial curve, poor fit]
CCOc1ccc(OCC)c(NC(=O)C2CCN(c3nnc(-n4cccc4)s3)CC2)c1		inconclusive: 17.8 µM [inhibitor, full curve, poor fit]
CCOC(=O)c1cccc(Nc2cc(-c3ccccc3)ncn2)c1		inconclusive: 25.1 µM [inhibitor, full curve, poor fit]
CCOC(=O)c1c(C)[nH]c(CCC(=O)NCc2ccccc2Cl)c1C	inactive: -2.73%	
Oc1ccc(NCc2ccccc2OCc2ccccc2F)cc1		active: 20 µM
O=S(=O)(c1ccc2oc3ccc(S(=O)(=O)N4CCOCC4)cc3c2c1)N1CCOCC1	inactive: -8.11%	
Nc1nn(Cc2ccccc2F)cc1Br	inactive: 0.965%	
CCOc1cccc(C(=O)Nc2cccc(C(F)(F)C(F)(F)OC(F)(F)C(F)(F)C(F)(F)OC(F)(F)F)c2)c1	inactive: 10.7%	
CCCCCCCCOc1ccc(/C=C/C(=O)O)cc1		inconclusive: 79.4 µM [inhibitor, partial curve, poor fit]

Structure (SMILES)	activity change, negative = inhibition	Potency
CCOc1ccc(C(=O)Nc2cccc(C(=O)OCc3cc(=O)n4nc(C5CC5)sc4n3)c2)cc1		inconclusive: 89.1 µM [inhibitor, partial curve, poor fit]
O=C(c1cccn2c(=O)c3cc(Cl)ccc3nc12)N1CCN(c2ccccc2F)CC1	inactive: -16%	
Cc1ccc(Cl)c(OCc2n[nH]c(=S)n2C)c1	inactive: -4.98%	
Cc1cc(N)c(-n2cc3c(c2-c2ccc(Br)cc2)c(=O)n(C)c(=O)n3C)cc1C		inconclusive: 31.6 µM [inhibitor, full curve]
Cc1cc2c(cc1C)NC(CC(=O)Nc1ccc(C(F)(F)F)cc1)C(=O)N2 (centres undefined)	inactive: 5.04%	
O=C(Cn1c(=O)oc2cc(S(=O)(=O)NCc3ccccc3)ccc21)Nc1ccc(F)c(Cl)c1	inactive: 2.03%	
NC(N)=N/N=C/C=C/c1ccccc1	inactive: -4.22%	
COc1cccc(OCc2nc3ccccc3n2Cc2ccccc2C)c1		inconclusive: 79.4 µM [inhibitor, partial curve, poor fit]
Cc1ccc(NC(=O)c2c(C)oc3ncnc(N4CCCCC4)c23)cc1Cl	inactive: -2.48%	
CCNC(=O)NC(=O)C(C)N(C)CCCCc1ccccc1 (centres undefined)	inactive: 0.0107%	
O=C(O)c1ccccc1NS(=O)(=O)c1ccc(N/N=C/c2cccs2)c([N+](=O)[O-])c1		inconclusive: 50.1 µM [inhibitor, partial curve, poor fit]
Cn1c(=O)c2c(ncn2CC(=O)Nc2ccccc2C(=O)NC2CC2)n(C)c1=O	inactive: 2.45%	
CCSc1nnc2c(n1)OC(c1ccc(C)cc1)N(C(C)=O)c1ccccc1-2 (centres undefined)		inconclusive: 10 µM [inhibitor, partial curve, poor fit]
Cc1cccc(N2CCN(C(=O)c3ccc(CS(=O)c4cccc(Cl)c4)o3)CC2)c1C (centres undefined)		inconclusive: 56.2 µM [inhibitor, partial curve, poor fit]
c1ccc(N2CCN(c3nc(N4CCCC4)nc4nccnc34)CC2)cc1		inconclusive: 56.2 µM [inhibitor, partial curve, poor fit]
CCOC(=O)c1c(C)[nH]c(C(=O)C(C)N(C)Cc2ccccc2Cl)c1C (centres undefined)		inconclusive: 89.1 µM [inhibitor, partial curve, poor fit]
O=c1n(Cc2cccc(F)c2)c2ccccc2c2nc(-c3ccccc3)nn12	inactive: -10.1%	
CCN(Cc1ccccc1)C(=O)Cn1c(=O)n(-c2ccc(OC)cc2OC)c(=O)c2c(C)c(C)sc21		inconclusive: 56.2 µM [inhibitor, partial curve, poor fit]
Cc1ccc(Cn2ccnc2SCC(=O)Nc2ccc3c(c2)OCO3)cc1		active: 79.4 µM
COCCN(CC(=O)NC(N)=O)Cc1ccccc1	inactive: 1.31%	
CCc1cc(C(c2ccc(OC)cc2)N2CCOCC2)c(NC(=O)c2ccco2)s1 (centres undefined)	inactive: -7.67%	
CC(=O)Nc1ccc(S(=O)(=O)Nc2ccc(-c3cn4c(C)csc4n3)cc2)cc1		inconclusive: 39.8 µM [inhibitor, single point]
